Data reported in paper PMC4336329 (PLoS ONE, 2015).
The whole screen tested about 310,000 compounds, of which about 2,200 (0.71%) showed an effect of 50% or more. The effect is printed as a negative number. This is one part of the list.

target: human ether-à-go-go-related gene (hERG) potassium channel (human, UniProt Q12809); experiment: primary screen, population patch clamp on CHO cells stably expressing hERG
Sequence (Q12809 whole entry, looked up): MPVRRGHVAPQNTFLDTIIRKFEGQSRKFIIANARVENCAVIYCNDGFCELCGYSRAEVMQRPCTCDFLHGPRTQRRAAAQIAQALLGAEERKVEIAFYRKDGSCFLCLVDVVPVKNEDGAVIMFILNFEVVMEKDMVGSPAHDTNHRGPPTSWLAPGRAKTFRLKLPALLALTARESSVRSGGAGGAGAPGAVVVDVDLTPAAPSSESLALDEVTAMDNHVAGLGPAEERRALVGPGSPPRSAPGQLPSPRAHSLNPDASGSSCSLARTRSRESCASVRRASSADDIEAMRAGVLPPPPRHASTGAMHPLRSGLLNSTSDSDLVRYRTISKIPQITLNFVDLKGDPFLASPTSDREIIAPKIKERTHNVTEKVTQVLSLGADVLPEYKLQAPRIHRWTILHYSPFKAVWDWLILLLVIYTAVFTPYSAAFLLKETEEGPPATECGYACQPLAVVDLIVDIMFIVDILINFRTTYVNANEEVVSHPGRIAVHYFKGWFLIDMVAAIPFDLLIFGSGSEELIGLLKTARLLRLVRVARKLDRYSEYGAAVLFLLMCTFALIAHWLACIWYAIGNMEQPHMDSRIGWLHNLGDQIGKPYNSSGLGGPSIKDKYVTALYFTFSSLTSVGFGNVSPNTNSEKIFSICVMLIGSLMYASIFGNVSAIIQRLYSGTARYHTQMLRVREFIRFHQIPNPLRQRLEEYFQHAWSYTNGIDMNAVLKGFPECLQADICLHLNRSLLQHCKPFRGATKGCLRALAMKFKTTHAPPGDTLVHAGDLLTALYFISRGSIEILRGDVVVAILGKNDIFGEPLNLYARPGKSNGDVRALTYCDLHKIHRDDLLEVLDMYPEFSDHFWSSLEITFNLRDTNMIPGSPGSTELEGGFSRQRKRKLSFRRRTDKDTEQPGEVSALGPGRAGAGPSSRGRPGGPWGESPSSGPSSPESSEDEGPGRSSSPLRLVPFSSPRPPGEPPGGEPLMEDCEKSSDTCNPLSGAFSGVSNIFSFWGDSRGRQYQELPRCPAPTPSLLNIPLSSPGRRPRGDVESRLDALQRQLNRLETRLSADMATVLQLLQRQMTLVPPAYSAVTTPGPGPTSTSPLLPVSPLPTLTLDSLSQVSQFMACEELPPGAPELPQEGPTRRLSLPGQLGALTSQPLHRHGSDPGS

| Compound | hERG current change (%, negative = inhibition) at 1uM [%] |
| --- | --- |
| Cc1cc(Br)ccc1NC(=O)CCSc1ccccc1 | 16.5 |
| COc1ccc(NC(=O)c2ccco2)cc1NC(=O)c1c(OC)cccc1OC | 9.39 |
| O=C(Cc1ccc(Cl)cc1)Nc1ccc2c(c1)C(=O)NC2=O | 5.63 |
| O=C(c1ccccc1)N(Cc1ccc(F)cc1)Cc1nc2ccccc2c(=O)[nH]1 | -1.53 |
| O=C(Cc1cccc2ccccc12)NNC(=O)Nc1cccc(Cl)c1 | 11.4 |
| Cc1ccc(S(=O)(=O)C(CNC(=O)C(C)C)c2cccs2)cc1 (centres unmarked) | 16.6 |
| O=C(COC(=O)c1cc[n+]([O-])cc1)NCc1ccccc1Cl | -6.16 |
| CCCCn1c(NCc2ccncc2)nc2ccccc21 | -10.1 |
| O=C(NCC1CCCO1)/C(=C\c1ccco1)NC(=O)c1ccccc1 (centres unmarked) | 14.9 |
| O=c1ccc(-c2ccccc2)nn1Cc1ccc(F)cc1Cl | 18.8 |
| CC(C)Cn1c(N)c(C(=O)COC(=O)COc2cccc(C(F)(F)F)c2)c(=O)n(C)c1=O | -16.5 |
| C=CCN(C(=O)CCC(=O)Nc1cc(C)on1)C(C(=O)NC1CCCC1)c1ccc(OC)cc1OC (centres unmarked) | 8.9 |
| CC(C(=O)N1CCc2ccccc21)N1CCc2ccccc2C1 (centres unmarked) | -4.76 |
| CCS(=O)(=O)c1ccc2c(c1)NC(=O)C(CCCl)O2 (centres unmarked) | -0.698 |
| CN1CCN(c2ccc([N+](=O)[O-])c(N3CCCCC3)c2)CC1 | 8.79 |
| Cc1ccc(S(=O)(=O)N(C)C)cc1NC(=O)CSc1nc2ccccc2[nH]1 | -8.95 |
| CS(=O)(=O)N(CC(=O)NCCc1ccccc1)c1cccc([N+](=O)[O-])c1 | 3.83 |
| COC/C=C/C1=CC2=CC(=O)C(C)(OC(=O)c3cnc4ccccc4n3)C(=O)C2=CN1CCc1ccccn1 (centres unmarked) | 14.7 |
| O=C(Nc1ccon1)C12CC3CC(C1)CC(n1cnc([N+](=O)[O-])n1)(C3)C2 | -4.03 |
| C[C@H](NC(=O)C1CC(=O)N(c2ccc3c(c2)OCCO3)C1)C(=O)NC1CCCC1 (some centres unmarked) | 9.62 |
| COc1ccc(CNC(=O)c2onc(C)c2Cl)cc1 | 7.13 |
| O=c1[nH]c(-[n+]2ccccc2)c(/C=N/NC([S-])=Nc2ccccc2)s1 | 25.5 |
| COc1ccc(OC)c(C2CC(=O)Nc3n[nH]c(-c4ccccc4)c32)c1 (centres unmarked) | 6.67 |
| COc1cccc(-c2noc(CCCC(=O)NC3CCCC3)n2)c1 | 11.6 |
| O=C(CN1CCN(Cc2ccccc2)CC1)NCCNc1ccc([N+](=O)[O-])cn1 | -5.73 |
| COc1cc(CN2CCNC(=O)C2CC(=O)NCCc2ncccc2C)cc(OC)c1 (centres unmarked) | 15 |
| O=C(NCC1(N2CCOCC2)CCCCC1)c1ccc(Cl)c(S(=O)(=O)NCc2ccco2)c1 | -23.1 |

| Compound | hERG current change (%, negative = inhibition) at 1uM [%] |
| --- | --- |
| Cl.O=C(CN1CCC(O)CC1)N1c2ccccc2C=Cc2ccccc21 | 0.486 |
| CN1CCN(CC(=O)N(C)c2nc(-c3ccccc3)cs2)CC1 | 2.44 |
| CC(=O)c1ccc(N2CCN(C(=O)/C=C/c3ccc(S(=O)(=O)NCc4ccco4)cc3)CC2)cc1 | -10.1 |
| COc1ccc(/C=N/Nc2nncc3ccccc23)c(OC)c1 | 16.2 |
| CCOC(=O)C1(Cc2ccccc2C(F)(F)F)CCN(C(=O)c2cc(C)n(C)n2)CC1 | 1.96 |
| CCOc1cc(C(=O)N/N=C\c2cn(CC)nc2C)cc(OCC)c1OCC | 12.2 |
| Cc1cc(C)c2nc(-c3ccccn3)cc(C(=O)Nc3ccc(S(=O)(=O)Nc4onc(C)c4C)cc3)c2c1 | 8.17 |
| CCOc1cc2c(cc1OCC)-n1cccc1C(c1cccc(F)c1)NC2.Cl (centres unmarked) | 8.25 |
| Cc1ccc(S(=O)(=O)N2CCN(C(=O)CCC(=O)NC3CCCc4ccccc43)CC2)cc1 (centres unmarked) | 12.5 |
| O=C(O)CC(NC(=O)CCC1CCCCC1)c1cc([N+](=O)[O-])ccc1Cl (centres unmarked) | 12.9 |
| O=C(Nc1ccc2c(c1)OCO2)C1CCN(S(=O)(=O)c2cccc3cccnc23)CC1 | 14.2 |
| Cc1ccc(C)c(S(=O)(=O)N2C(=S)NC(=O)C2C(C)C)c1 (centres unmarked) | 6.07 |
| COCCCNC(=O)C1CCC(CNS(=O)(=O)c2ccc3c(c2)CC(C)N3C(=O)C2CC2)CC1 (centres unmarked) | 1.05 |
| CN(c1ccccc1)C(c1ccc(F)cc1)c1nnnn1CC1CCCO1.Cl (centres unmarked) | 2.88 |
| O=C(CCN1CCN(C/C=C/c2ccccc2)CC1)Nc1ccccc1F.O=C(O)C(=O)O | -81.2 |
| COc1ccccc1N(CC(=O)Nc1ccc2c(c1)OCCO2)S(=O)(=O)c1ccc(C)cc1 | 13.8 |
| Cn1c(=O)c2c(nc(NCc3cccnc3)n2Cc2ccc(Cl)cc2)n(C)c1=O | 3.92 |
| Cc1ccc(CN2CCN(Cc3cnc(N4CCOCC4)s3)CC2CCO)cc1 (centres unmarked) | -14.3 |
| CCCCn1c(N)c(N2CCOCC2)c(=O)n(CC(=O)NC(C)c2ccccc2)c1=O (centres unmarked) | 10.6 |
| COc1ccc(-n2c(-c3ccc(C)cc3)nc3ccccc3c2=O)cc1 | 0.946 |
| Cc1ccc(NC(=O)Nc2ccccc2C#N)c(Cl)c1 | 10.7 |
| CC1=C(C(N)=O)C(c2cccs2)n2nc(-c3cccc(C)c3)nc2N1 (centres unmarked) | -9.92 |
| CN1C(C(=O)Nc2ccc(F)cc2F)=CC(c2ccco2)=NS1(=O)=O | -9.69 |
| Fc1cccc(NC(=S)N2CCn3cccc3C2c2cccnc2)c1 (centres unmarked) | 4.28 |
| O=C(CCN1CCCCC1)NCC1OCCc2ccccc21 (centres unmarked) | -26.7 |
| S=C(NC1CCCCC1)N(CCc1ccccc1)CCc1ccccc1 | 2.69 |
